# Measurements as given in the supplement of paper PMC4166925.
# ± gives the standard deviation of the averaged measurements. Over roughly 33,000 sequences, “E-score (dimensionless, -0.5 to 0.5)” has its median near -0.046; the highest 2% begin near 0.36. This is one part of the list.
# Tested on: T1, SpTbr T-box DNA-binding domain (GST fusion)
# T1 sequence: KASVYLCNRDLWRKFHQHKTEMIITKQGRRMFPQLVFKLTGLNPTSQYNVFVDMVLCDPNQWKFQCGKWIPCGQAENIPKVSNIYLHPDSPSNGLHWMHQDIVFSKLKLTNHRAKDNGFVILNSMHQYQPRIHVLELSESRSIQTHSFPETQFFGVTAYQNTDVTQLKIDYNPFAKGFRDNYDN
# Experiment: PBM E-score of 8-mer (E-score (dimensionless, -0.5 to 0.5)); Tbr is Tbrain of the sea star Patiria miniata (Pm) or the sea urchin Strongylocentrotus purpuratus (Sp); higher = stronger binding preference; most listed sequences are background and not binding sites
# Conditions: the construct has about 5 more residues each side
# How it was run: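 Using the Universal PBM Analysis Suite, every ungapped 8-mer received an enrichment E-score averaged over duplicate arrays. Probe intensities came from double-stranded Universal Agilent oligonucleotide arrays incubated with 200 nM GST-fused Tbr T-box DNA-binding domain in PBS (pH 7.5). That protein was expressed in BL21 E. coli at 20 °C and purified by glutathione affinity chromatography.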
row,Sequence,PBM E-score of 8-mer
1,AACATTGA,-0.00728 ± 0.0098
2,CGTGAGAA,0.347 ± 0.016
3,CGCGGGAC,0.0315 ± 0.064
4,CATGGCAC,0.168 ± 0.054
5,CACTTCCG,0.334 ± 0.0095
6,CTGCCGCC,0.0831 ± 0.063
7,GTTGCCTA,-0.0282 ± 0.085
8,CAAGTTGA,0.16 ± 0.02
9,GACCATCA,-0.184 ± 0.0046
10,AAAGTTAA,-0.136 ± 0.012
11,AAGTAAGT,-0.0459 ± 0.036
12,AACGGCAG,-0.0394 ± 0.0079
13,ACTTATAC,-0.0261 ± 0.0079
14,ATTGTGTC,0.228 ± 0.03
15,CAATTCTC,-0.00088 ± 0.029
16,GATCTCGC,0.294 ± 0.025
17,ATACCGCG,-0.0658 ± 0.021
18,ATTTATTG,-0.134 ± 0.013
19,ATAGAAAG,-0.129 ± 0.012
20,GTTGGACA,0.069 ± 0.035
21,GAGCGCTC,-0.00869 ± 0.038
22,TACTATGA,-0.225 ± 0.053
23,AGTCGGAC,-0.309 ± 0.081
24,CCGATTTC,-0.0463 ± 0.011
25,AACTTCTC,-0.0445 ± 0.034

row,Sequence,PBM E-score of 8-mer
1,CCCCGCCC,0.0179 ± 0.047
2,ATACCAAA,-0.0604 ± 0.041
3,ATGCACTC,-0.0356 ± 0.012
4,ACAGATAG,0.131 ± 0.025
5,GCTGGGTA,-0.245 ± 0.084
6,AACAGTAT,-0.0762 ± 0.033
7,ACTTATGG,-0.156 ± 0.017
8,CCATTGAG,0.049 ± 0.0017
9,GGAGTTTA,0.0473 ± 0.035
10,AACGTTCC,-0.144 ± 0.0034
11,CTTGAGAA,0.17 ± 0.068
12,ATTTCGTA,-0.0852 ± 0.1
13,AATTATCC,-0.0952 ± 0.027
14,ACATGGTA,0.049 ± 0.016
15,ATCAAAGG,-0.0537 ± 0.028
16,ATGAGACC,-0.223 ± 0.0095
17,CAAGGGCA,-0.222 ± 0.029
18,ACGCCATC,0.198 ± 0.021
19,CCACCGAA,-0.11 ± 0.099
20,ATTCATGA,-0.337 ± 0.033
21,ATGGCCAA,-0.23 ± 0.013
22,GTGTAATA,0.216 ± 0.07
23,GCGGGCCA,-0.033 ± 0.023
24,TACATTAA,-0.204 ± 0.013
25,AGATTTAG,-0.135 ± 0.097

row,Sequence,PBM E-score of 8-mer
1,CTCTTGTC,0.0456 ± 0.079
2,TACTGGGA,-0.15 ± 0.064
3,TGTGTTAA,0.407 ± 0.011
4,AGCGAGGG,0.154 ± 0.021
5,CGAAAGAA,-0.00235 ± 0.025
6,AGTGCGAC,0.341 ± 0.024
7,ACCCGAGG,-0.173 ± 0.0036
8,CCATTATA,-0.0941 ± 0.037
9,ATGGTTTA,-0.139 ± 0.0058
10,CTCGTTGC,-0.0203 ± 0.038
11,GTACAACA,0.00342 ± 0.013
12,GTACACAA,0.13 ± 0.0059
13,CTATGACA,0.113 ± 0.043
14,GCAGGAAC,-0.0389 ± 0.047
15,ATACATGC,-0.278 ± 0.046
16,CGCGTTCA,0.153 ± 0.037
17,CATGCCGG,-0.0881 ± 0.043
18,CGTCTTGA,0.0659 ± 0.085
19,AACAGAAA,-0.0336 ± 0.082
20,ACGATGGC,0.0959 ± 0.021
21,ATCGTTGA,-0.12 ± 0.015
22,AGCATTAG,-0.192 ± 0.063
23,ATCGTCAA,0.158 ± 0.0046
24,CACCTTAG,0.401 ± 0.04
25,CTCTCTGC,-0.175 ± 0.011

row,Sequence,PBM E-score of 8-mer
1,ACCCACGT,0.143 ± 0.023
2,AAACGGTA,-0.16 ± 0.014
3,ACATTTAT,-0.0648 ± 0.056
4,GCTCTTTA,-0.3325 ± 0.0015
5,ACGGACTC,-0.184 ± 0.058
6,GCAACCCC,0.0268 ± 0.005
7,ACTGAGAA,0.022 ± 0.075
8,ATGACGAG,-0.115 ± 0.059
9,ATAAATGG,-0.262 ± 0.03
10,CGGGATTA,-0.321 ± 0.048
11,GAATAGTA,-0.0624 ± 0.043
12,CGTATCCA,-0.287 ± 0.016
13,AGTAAATC,-0.0239 ± 0.03
14,GGATAAGA,-0.142 ± 0.0051
15,AACACGCC,0.245 ± 0.033
16,GAAATGTC,0.00241 ± 0.033
17,AAGATTGA,0.0172 ± 0.018
18,CACTCCCG,0.179 ± 0.021
19,CGGACAAG,-0.0574 ± 0.0041
20,CTAAGAAG,0.116 ± 0.0052
21,CAAACCCA,-0.0174 ± 0.031
22,GAGCGACC,0.0942 ± 0.02
23,AAGCACCA,-0.111 ± 0.097
24,AATGCCCG,0.0567 ± 0.034
25,ACCAATAG,-0.189 ± 0.01

row,Sequence,PBM E-score of 8-mer
1,CCTCTGCC,-0.0817 ± 0.01
2,AGTGCTTG,-0.141 ± 0.018
3,CGAATGTC,0.0371 ± 0.038
4,ATTTGCCG,0.0704 ± 0.0066
5,CTCTCCTA,-0.181 ± 0.0087
6,AACATACG,-0.012 ± 0.02
7,CGAGTTTC,0.0382 ± 0.045
8,ACGGCGTG,0.232 ± 0.0069
9,AGTGGTTG,-0.0792 ± 0.038
10,GAAGGACC,-0.178 ± 0.0037
11,GAATAGCC,-0.156 ± 0.018
12,AACAGCGA,0.113 ± 0.034
13,ATGAACAA,-0.00436 ± 0.014
14,AATAGGCA,-0.136 ± 0.035
15,GAGGCTAC,-0.176 ± 0.025
16,GGACGCGA,0.0206 ± 0.062
17,AGCTGTAT,-0.252 ± 0.029
18,ACCTTACC,-0.0718 ± 0.017
19,TAGCAACA,0.273 ± 0.012
20,CCGCTAGC,0.0636 ± 0.049
21,ACTGTAGG,-0.105 ± 0.036
22,ACGAAGGA,-0.187 ± 0.049
23,AAAGGTCG,-0.112 ± 0.015
24,TCATTAAA,-0.105 ± 0.035
25,CTTACGTC,-0.104 ± 0.0097

row,Sequence,PBM E-score of 8-mer
1,TCTTAAAA,-0.101 ± 0.1
2,CTTAGTAA,-0.0946 ± 0.01
3,GTTATGGA,-0.141 ± 0.015
4,TCCATGCA,-0.18 ± 0.016
5,ACTCTACA,0.00395 ± 0.0024
6,AGCACGCT,-0.104 ± 0.025
7,CACTCCGA,0.143 ± 0.0022
8,CGAGCCTC,-0.146 ± 0.14
9,CCGCAGGA,-0.256 ± 0.054
10,ACGCCTCT,0.30412 ± 0.00015
11,CGCCGATA,0.00773 ± 0.084
12,ACCGAAGC,-0.057 ± 0.025
13,ATCGCGCG,0.337 ± 0.004
14,ACGAAGGC,0.0144 ± 0.031
15,AGGCGACC,0.012 ± 0.083
16,GATCATCA,0.0455 ± 0.025
17,ACAGAAGT,0.0979 ± 0.032
18,ATCGATCA,0.0465 ± 0.078
19,TCACCTGA,0.3337 ± 0.0032
20,GCCAGCCC,-0.216 ± 0.011
21,CCATGGAC,-0.0271 ± 0.055
22,CCGTAAAC,0.11 ± 0.086
23,ATGTGGGA,0.234 ± 0.041
24,GCTGTACA,0.049 ± 0.045
25,AATTTGCG,0.19 ± 0.056

row,Sequence,PBM E-score of 8-mer
1,GAACATTC,-0.216 ± 0.042
2,CTTGACAA,0.323 ± 0.011
3,GAGGCGAA,-0.0262 ± 0.12
4,CGAGGGTC,0.0434 ± 0.083
5,GGCCTGAC,-0.0972 ± 0.049
6,ACATTAGG,0.0477 ± 0.0036
7,CACTGGAA,-0.103 ± 0.065
8,GACAAGCA,0.111 ± 0.035
9,ATTCTTTC,-0.151 ± 0.024
10,GAGCGAGA,0.148 ± 0.024
11,AAGCTCGT,-0.152 ± 0.04
12,ACTGGAAA,-0.176 ± 0.012
13,GAAGTTTA,-0.105 ± 0.0085
14,AGTCGGCG,-0.0578 ± 0.01
15,ACTCGTGC,0.199 ± 0.015
16,GAGGGATC,0.0589 ± 0.031
17,CCCAACGA,-0.202 ± 0.044
18,ACCTTAGT,-0.144 ± 0.058
19,GACGACTC,2e-05 ± 0.026
20,TAAGCAGA,-0.0352 ± 0.025
21,CCAACGCA,-0.0665 ± 0.067
22,AGGACTCA,-0.138 ± 0.053
